The other results are listed elsewhere or left out.

The test system of experiment [1] is HSkMC (human skeletal muscle cells). The experiment in a line: cytotoxicity call (relative viability < 0.9). To be noted: 10 µM.
Experiment [2] has as its system HepG2. Nature of the experiment: cytotoxicity call (relative viability < 0.9). The conditions noted are these: 10 µM.
The subject of experiment [3] is S. aureus RN4220. Nature of the experiment: growth inhibition call (relative growth <= 0.2). To be noted: 50 µM.

As to `O=C(N/N=C/[C@H](O)[C@H](O)[C@@H](O)[C@@H](O)CO)c1ccccn1`, the cytotoxicity call in experiment [1] and in experiment [2] was “inactive” in each case. Moreover, the growth inhibition call in experiment [3] was “inactive”.
On to `COc1ccc(S(=O)(=O)Nc2ccc3c(c2)C(=O)N([C@H](C)CO)C[C@@H](C)[C@H](CN(C)Cc2ccc(Cl)c(Cl)c2)O3)cc1`, for which the cytotoxicity call in experiment [1] is “active”. Besides, the cytotoxicity call in experiment [2] was “inactive”. The growth inhibition call in experiment [3] is “inactive”.
On to `C[C@@H]1CN([C@@H](C)CO)C(=O)Cc2cc(NS(=O)(=O)c3cn(C)cn3)ccc2O[C@@H]1CN(C)Cc1ccccc1`, for which the cytotoxicity call in experiment [1] and in experiment [2] was “inactive” throughout. Besides, the growth inhibition call in experiment [3] was “inactive”.
With `Cn1cnc(S(=O)(=O)N2C[C@@H](O)COC[C@@H]3O[C@@H](CC(=O)NC4CCC4)CC[C@H]32)c1`, the cytotoxicity call in experiment [1] and in experiment [2] was “inactive” throughout. In experiment [3], the growth inhibition call was “inactive”.
For the compound `CNC[C@@H]1OCCCC[C@@H](C)Oc2ccc(NC(=O)CCCN(C)C)cc2C(=O)N([C@H](C)CO)C[C@@H]1C`, the cytotoxicity call in experiment [1] and in experiment [2] was “inactive” throughout. Also, the growth inhibition call in experiment [3] was “inactive”.
As for `C[C@@H]1CN([C@@H](C)CO)C(=O)c2cc(NC(=O)Nc3ccc(F)cc3)ccc2O[C@@H](C)CCCCO[C@@H]1CN(C)Cc1ccc2c(c1)OCO2`, in experiment [1], the cytotoxicity call is “inactive”. Further, in experiment [2], the cytotoxicity call is “active”. Moreover, the growth inhibition call in experiment [3] was “inactive”.
As to `C[C@H](O)C#Cc1ccc2c(c1)O[C@H](CN(C)C(=O)Cc1ccccn1)[C@@H](C)CN([C@H](C)CO)S2(=O)=O`, the cytotoxicity call in experiment [1] and in experiment [2] was “inactive” throughout. Also, in experiment [3], the growth inhibition call was “inactive”.
For the compound `C[C@H]1CCCCO[C@@H](CN(C)C(=O)c2ccccc2)[C@@H](C)CN([C@@H](C)CO)C(=O)c2cc(NC(=O)C3CCCCC3)ccc2O1`, the cytotoxicity call in experiment [1] and in experiment [2] was “inactive” each time. Besides, the growth inhibition call in experiment [3] was “inactive”.
Consider `O=C(C[C@H]1C=C[C@H](NC(=O)Cc2ccccn2)[C@@H](CO)O1)NCCCN1CCOCC1`, for which the cytotoxicity call in experiment [1] and in experiment [2] was “inactive” in each case. Moreover, in experiment [3], the growth inhibition call is “inactive”.
Regarding `CC(=O)Nc1ncc([N+](=O)[O-])s1`, the cytotoxicity call in experiment [1] and in experiment [2] was “inactive” in each case. The growth inhibition call in experiment [3] was “inactive”.
Regarding `O=c1c2cc(O)c(O)cc2oc2cc(O)c([C@H]3O[C@H](CO)[C@H](O)[C@@H](O)[C@H]3O)c(O)c12`, the cytotoxicity call in experiment [1] and in experiment [2] was “inactive” each time. The growth inhibition call in experiment [3] was “inactive”.
As to `COc1ccc2c3c([nH]c2c1)[C@@H](CO)N(C[C@]13CN(CC2CCCCC2)C1)S(=O)(=O)c1cn(cn1)C`, the cytotoxicity call in experiment [1] and in experiment [2] was “inactive” each time. In experiment [3], the growth inhibition call is “inactive”.
In the case of `CC(C)NC(=O)N(C)C[C@H]1Oc2ccc(NS(=O)(=O)c3cccs3)cc2CC(=O)N([C@H](C)CO)C[C@@H]1C`, the cytotoxicity call in experiment [1] and in experiment [2] was “inactive” each time. For the same compound, the growth inhibition call in experiment [3] was “inactive”.
Regarding `Cc1ccc(S(=O)(=O)Nc2ccc3c(c2)C(=O)N([C@@H](C)CO)C[C@@H](C)[C@@H](CN(C)Cc2ccc(C(F)(F)F)cc2)O3)cc1`, the cytotoxicity call in experiment [1] and in experiment [2] was “inactive” throughout. For the same compound, in experiment [3], the growth inhibition call is “inactive”.
As for `CCn1cc(C2=NO[C@H](C(=O)O)C2)c(C)n1`, the cytotoxicity call in experiment [1] and in experiment [2] was “inactive” each time. Besides, the growth inhibition call in experiment [3] was “inactive”.
In the case of `Cc1noc(C)c1S(=O)(=O)Nc1cccc2c1O[C@H](CN(C)Cc1ccc(Oc3ccccc3)cc1)[C@H](C)CN([C@H](C)CO)C2=O`, the cytotoxicity call in experiment [1] and in experiment [2] was “inactive” in each case. The growth inhibition call in experiment [3] was “inactive”.
With `C[C@@H]1CN([C@@H](C)CO)S(=O)(=O)c2ccc(C#Cc3ccccc3)cc2O[C@H]1CN(C)C(=O)CN(C)C`, the cytotoxicity call in experiment [1] and in experiment [2] was “inactive” in each case. In addition, the growth inhibition call in experiment [3] is “inactive”.
On to `C[C@@H]1CN([C@H](C)CO)C(=O)c2cc(NC(=O)Nc3cccc4ccccc34)ccc2O[C@@H](C)CCCCO[C@H]1CN(C)S(=O)(=O)c1ccc(Cl)cc1`, for which the cytotoxicity call in experiment [1] and in experiment [2] was “inactive” throughout. For the same compound, the growth inhibition call in experiment [3] is “inactive”.
`O=C(C1=C[C@H](C2CC2)C[C@H](OCc2ccc(CO)cc2)O1)N1CCN(Cc2ccc3c(c2)OCO3)CC1`: the cytotoxicity call in experiment [1] and in experiment [2] was “inactive” throughout. Further, the growth inhibition call in experiment [3] is “inactive”.
As for `Cn1cc(CN2CCC3(CC2)CNC(=O)CO3)cn1`, the cytotoxicity call in experiment [1] and in experiment [2] was “inactive” each time. In addition, the growth inhibition call in experiment [3] is “inactive”.
For the compound `C[C@@H]1CCCCO[C@H](CN(C)C(=O)C2CCCCC2)[C@H](C)CN([C@@H](C)CO)C(=O)c2cc(NC(=O)NC3CCCCC3)ccc2O1`, in experiment [1], the cytotoxicity call is “inactive”. Further, the cytotoxicity call in experiment [2] is “active”. The growth inhibition call in experiment [3] was “inactive”.
As to `C[C@H](CO)N1C[C@H](C)[C@H](CN(C)C(=O)Nc2cc(F)ccc2F)Oc2ncc(C#CCN(C)C)cc2C1=O`, the cytotoxicity call in experiment [1] and in experiment [2] was “inactive” throughout. Moreover, the growth inhibition call in experiment [3] is “inactive”.
Regarding `CN1CCN(C(=O)C[C@@H]2CC[C@@H]3[C@H](COC[C@@H](O)CN3C(=O)C3CCCC3)O2)CC1`, the cytotoxicity call in experiment [1] and in experiment [2] was “inactive” in each case. In addition, the growth inhibition call in experiment [3] was “inactive”.
For `C=C[C@](C)(O)CC/C=C(\C)C(=O)O[C@@H]1[C@@H](O[C@@](C)(C=C)CC/C=C(\C)C(=O)O[C@H]2C[C@@]3(C(=O)O[C@H]4OC[C@@H](O[C@H]5O[C@@H](CO)[C@@H](O)[C@@H](O[C@H]6O[C@@H](CO)[C@@H](O[C@H]7O[C@@H](CO)[C@@H](O)[C@@H](O)[C@@H]7O)[C@@H](O)[C@@H]6O)[C@@H]5O)[C@@H](O)[C@@H]4O)[C@@H](O)C[C@@]4(C)C(=CC[C@H]5[C@@]6(C)CC[C@@H](O[C@H]7O[C@@H](CO)[C@@H](O[C@H]8O[C@@H](CO)[C@@H](O)[C@@H](O[C@H]9OC[C@@H](O)[C@@H](O)[C@@H]9O)[C@@H]8O)[C@@H](O)[C@@H]7O)C(C)(C)[C@@H]6CC[C@@]54C)[C@@H]3CC2(C)C)OC[C@@H](O)[C@H]1O`, the cytotoxicity call in experiment [1] and in experiment [2] was “active” in each case. Also, in experiment [3], the growth inhibition call is “inactive”.
Regarding `C[C@@H]1CN([C@@H](C)CO)C(=O)c2c(c3ccccc3n2C)-c2ccccc2CO[C@@H]1CN(C)C(=O)Nc1ccccc1`, the cytotoxicity call in experiment [1] and in experiment [2] was “inactive” each time. In experiment [3], the growth inhibition call is “inactive”.
Take `Cc1noc(C)c1S(=O)(=O)Nc1ccc2c(c1)C(=O)N([C@H](C)CO)C[C@H](C)[C@H](CN(C)C(=O)Nc1ccc3c(c1)OCO3)O2`: the cytotoxicity call in experiment [1] and in experiment [2] was “inactive” each time. Besides, the growth inhibition call in experiment [3] is “inactive”.
